{"source": "patent US20150366877A1", "about": "“METHODS OF TREATMENT OF HUMAN CYTOMEGALOVIRUS INFECTION AND DISEASES WITH BROMODOMAIN INHIBITORS” (Washington University, priority 2013, published 2015)", "system": "HCMV laboratory-adapted strain AD169-GFP", "experiment": "microbe, parasite or virus in culture", "conditions": "for IC50 / IC90: Human betaherpesvirus 5, AD169, AD169-GFP", "protocol": "For standard assays, human foreskin fibroblast (HFF) cells were cultured in black 96-well plates (Corning, USA) and infected with recombinant laboratory-adapted strains of AD169-GFP with various MOIs to compare MOI dependency of (+)-JQ-1 treatment. (MOIs of 1, 0.3, 0.1, and 0.03) After virus adsorption, the virus inoculum was replaced with 200 μl medium containing the respective bromodomain inhibitors followed by serial 2-fold dilutions. Drug concentrations were tested at least in duplicate and the drug concentrations were maintained by replaced the medium every 24 hours. Plates were incubated at 37 C for 7-8 days. The medium was replaced by 200 μl PBS, and GFP units (GFPU) were determined by a fluorescence detector (BioTek Synergy H1, USA). IC50 and IC90 values were calculated using nonlinear regression curve fit with a variable slope (four parameters). GraphPad Prism 6 was used for the analysis.", "data": [{"smiles": "Cc1sc2c(c1C)C(c1ccc(Cl)cc1)=N[C@@H](CC(=O)OC(C)(C)C)c1nnc(C)n1-2", "note": "[(+)-JQ1, 4-(4-chlorophenyl)-2,3,9-trimethyl-1,1-dimethylethyl ester-6H-thieno[3,2-f][1,2,4]triazolo[4,3-}{1,4}diazepine-6S-acetic acid]", "values": [{"measurement": "IC50", "setting": "MOI 0.03", "value": 0.0586, "unit": "µM"}, {"measurement": "IC90", "setting": "MOI 0.03", "value": 0.144, "unit": "µM"}, {"measurement": "IC50", "setting": "MOI 0.1", "value": 0.059, "unit": "µM"}, {"measurement": "IC90", "setting": "MOI 0.1", "value": 0.192, "unit": "µM"}, {"measurement": "IC50", "setting": "MOI 0.3", "value": 0.0684, "unit": "µM"}, {"measurement": "IC90", "setting": "MOI 0.3", "value": 0.223, "unit": "µM"}, {"measurement": "IC50", "setting": "MOI 1", "value": 0.0581, "unit": "µM"}, {"measurement": "IC90", "setting": "MOI 1", "value": 0.602, "unit": "µM"}, {"measurement": "MOI dependency of blocking of HCMV infection", "setting": "compared to known CMV antivirals", "value": "less MOI dependent"}]}]}
